Assay results as given in PubChem BioAssay AID1345083 (National Center for Advancing Translational Sciences (NCATS), 2018).
Among all 94,000 compounds or so, about 6,200 (6.6%) were called active. The inconclusive results got no clear call from the source; some entries with a clear call stand among them for comparison. The call rests on the fitted dose curve; in most records, active means well fitted inhibition curve with a large enough effect; inconclusive means small, poorly fitted or top-dose-only effect; inactive means flat fitted curve, though single readings scatter. A potency beside an inconclusive call is a rough fit, not a confirmed value.

Test: Cytotoxic Profiling in HEK 293 Cell Line of Diverse Libraries Using Quantitative High-Throughput Screening; further: nearly all actives have a fitted effect of over 60% in size
Conditions: HEK 293 viability, ATP luminescence (CellTiter-Glo), 48-72 h; series mostly up to 115 µM
How it was run: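 Luminescence from cellular ATP, measured with CellTiter-Glo, indicates HEK 293 viability. Cells plated at 250 cells/well are treated with compound for 48 or 72 hr at 37 degree Celsius before reagent addition.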
Potency means the concentration at half of the fitted maximal effect; tags describe the fitted curve by direction and shape.

Row | Compound | Potency
1 | O=C(NCc1cccnc1)c1ccc2nnc(-c3ccc(OC(F)(F)F)cc3)n2c1 | inactive
2 | O[C@@H]1C[C@@H](c2nc(-c3ccccc3)no2)N(Cc2cccc(OC(F)(F)F)c2)C1 | inconclusive: 100 µM [inhibitor, partial curve, poor fit]
3 | CN(Cc1cccc(C(F)(F)F)c1)Cc1ccnn1C | inactive
4 | COC(=O)[C@@H]1Cc2ncn(Cc3ccccc3)c2CN1C(=O)c1ccc(OC)cc1 | inactive
5 | Cc1ccc(-c2noc(-c3nc(-c4cccnc4)no3)n2)cc1 | inactive
6 | O=C(NCCc1ccccc1)C1CCN(C(=O)c2ncn3c2COC(c2ccc(Cl)cc2)C3)CC1 (centres undefined) | inactive
7 | CC(C)c1ccccc1NC(=O)Cn1cccc1-c1nc(-c2ccc(F)cc2)no1 | inactive
8 | C[C@@H]1CN(c2nc(-c3ccccc3)no2)CC[C@@]1(O)C1CCC1 | inconclusive: 50.1 µM [inhibitor, partial curve, poor fit]
9 | CN(CCNC(=O)CCC[C@H]1NC[C@@H]2CC1CN(Cc1ccccc1)C2)C1CCCCC1 | inactive
10 | O=C1NC2(CCN([S+](=O)([O-])c3ccccc3)C2)COc2ccccc21 (centres undefined) | inconclusive: 79.4 µM [inhibitor, partial curve, poor fit]
11 | CCN(CC)C(=O)c1ccc(-c2nnc3ccc(NC(=O)C4CC4)cn23)cc1 | inconclusive: 89.1 µM [inhibitor, single point]
12 | O=C1CCCN1CC1CCN(C(=O)c2ccc(N3CC[C@@H](O)C3)nc2)CC1 | inactive
13 | CCN1C(=O)C2CC3(CCN(Cc4cccc(OC(F)(F)F)c4)CC3)CN2C1=O (centres undefined) | active: 39.8 µM
14 | CN(Cc1nc2ccc(Cl)cc2[nH]1)C(=O)c1ccc2nccn2c1 | inactive
15 | CCc1ccc(S(=O)(=O)N2CCC(n3cnnc3CC)CC2)cc1 | inactive
16 | COc1ccc2[nH]c3c(c2c1)CCN(C)C31CCN(C(=O)c2cccnc2)CC1 | inconclusive: 79.4 µM [inhibitor, single point]
17 | N#Cc1ccc(N2C[C@@H]3OCC(=O)N(CC4CCCCC4)[C@@H]3C2)nc1 | inconclusive: 100 µM [inhibitor, partial curve, poor fit]
18 | O=c1cc(N2CCOCC2)oc2c(NCc3ccc(F)cc3)nccc12 | inconclusive: 35.5 µM [inhibitor, partial curve, poor fit]
19 | Cc1ccccc1Oc1ncccc1CNC(=O)CCc1c(C)nn(C)c1C | inactive
20 | CC(C(=O)N1CCCN(C)c2ccccc21)c1ccccc1 (centres undefined) | inconclusive: 31.6 µM [inhibitor, partial curve, poor fit]
21 | O=C(O)CCn1ncc2cc(OC3CCN(C(=O)OCc4ccccc4)CC3)ccc21 | inactive
22 | CN(C)c1ccc(-c2ccnc(N[C@H]3CO[C@H]4[C@@H]3OC[C@@H]4NC(=O)NCc3ccccc3)n2)cc1 | active: 31.6 µM
23 | Cc1ccccc1CN1Cc2nc(NCc3ccncc3)ccc2OCC1=O | active: 89.1 µM

Row | Compound | Potency
24 | Cn1ncc2c(C(=O)N3CCCCC3)cc(-c3cccc(F)c3)nc21 | inconclusive: 56.2 µM [inhibitor, partial curve, poor fit]
25 | C#CCNC(=O)C1=NOC2CN(C(=O)c3ccn(C)n3)CC12 (centres undefined) | inactive
26 | O=C(c1ccc(Cl)cc1)N1CCCC(n2cc(-c3nc(-c4ccccc4)no3)nn2)C1 (centres undefined) | active: 35.5 µM
27 | COc1ccc(C)cc1NC(=O)Cn1c(N(C)Cc2ccccc2)nc(C)cc1=O | inconclusive: 22.4 µM [inhibitor, full curve]
28 | CC1=C[C@@H](CNC(=O)c2ccccc2)[C@H](C(C)C)C[C@H]1Cc1nnc(-c2cncn2C)o1 | active: 79.4 µM
29 | O[C@@H]1C[C@@H](c2nc(-c3ccc4c(c3)OCO4)no2)N(Cc2ccncc2)C1 | active: 89.1 µM
30 | O=C1CCN(S(=O)(=O)c2ccccc2)CCCN(C(=O)Cc2cccc(F)c2)CCN1 | inconclusive: 89.1 µM [inhibitor, partial curve, poor fit]
31 | Cc1ccc(-c2nc(C(=O)N3CCN(c4cc(C)ccc4C)CC3)no2)cc1 | inconclusive: 89.1 µM [inhibitor, single point]
32 | Cc1nc2c(c(-c3ccc(O)cc3)n1)CN(Cc1ccccc1OC(F)(F)F)CC2 | inconclusive: 50.1 µM [inhibitor, partial curve, poor fit]
33 | CCc1noc(-c2ccn3c(CNC(=O)C(CC)c4ccccc4)nnc3c2)n1 (centres undefined) | inconclusive: 89.1 µM [inhibitor, partial curve, poor fit]
34 | Cc1cccc(C)c1-c1nc(C(=O)NCc2ccc3c(c2)OCO3)n2ccccc12 | inconclusive: 50.1 µM [inhibitor, partial curve, poor fit]
35 | COc1ccc(NC(=O)c2cc3n(n2)CC(c2ccc(Br)cc2)OC3)cc1OC (centres undefined) | active: 44.7 µM
36 | O=C(Cn1c(=O)c2c(n1Cc1ccccc1)CN(Cc1ccccc1)CC2)Nc1cccc(F)c1 | inconclusive: 89.1 µM [inhibitor, partial curve, poor fit]
37 | CCOC(=O)[C@@H]1CN(C(=O)COc2ccccc2)[C@H]2c3ccc(OC)cc3O[C@@H]12 | inactive
38 | COc1ccc2c(c1)O[C@H]1[C@H](CO)CN([S+](=O)([O-])c3cccs3)[C@@H]21 | active: 50.1 µM
39 | CCN(C(=O)CN1C(=O)NC2(CCOCC2)C1=O)c1ccccc1 | inactive
40 | CN1CC(=O)N(C2CNC2)Cc2c(NCC3CC3)ncnc21 | inactive
41 | CCCc1cc(CNC(=O)c2ccc(N3CCCN(CCC)CC3)nc2)on1 | inactive
42 | Cc1nc2c(c(=O)[nH]1)CCN(CC1(O)CNCCOC1)CC2 (centres undefined) | inactive
43 | COc1ccccc1NC(=O)N1CCC(N2CC3CC(C2)[C@H]2CCCC(=O)N2C3)CC1 (some centres undefined) | inactive
44 | Cc1cccc(CN2CCCCCNC(=O)[C@@H]3CCC[C@@H]32)c1 | inconclusive: 79.4 µM [inhibitor, partial curve, poor fit]
45 | Cc1nn(-c2ccccc2)c2c1C(C1CC1)N(CC1CN(C(=O)c3ccccc3F)C1)C2=O (centres undefined) | inconclusive: 50.1 µM [inhibitor, partial curve, poor fit]
46 | O=C(C[C@@H]1CCNC[C@@H]1Cc1cc(COc2ccccc2)on1)NC1CCCCC1 | active: 100 µM

Row | Compound | Potency
47 | COc1ccc(-c2nc(C3CC3)nc3c2CN(S(=O)(=O)c2cccc(OC)c2)CC3)cc1 | inconclusive: 89.1 µM [inhibitor, single point]
48 | Cc1cc(-c2nccc3c(=O)cc(N(C)C)oc23)ccn1 | inactive
49 | CCOC(=O)C1CCCN(C(=O)c2nc3sccn3c2-c2ccccc2)C1 (centres undefined) | inconclusive: 22.4 µM [inhibitor, full curve, poor fit]
50 | Cc1cccc(OCC2CCCN(C(=O)c3ccc4nc(C)cn4c3)C2)c1 (centres undefined) | inconclusive: 79.4 µM [inhibitor, single point]
51 | Cn1cc(CN2CCc3c([nH]n(CCO)c3=O)C2)c(-c2ccccc2)n1 | inactive
52 | COCCS(=O)(=O)c1ncc(CN2CC[C@@H]3CCCC[C@H]3C2)n1Cc1ccccc1 | active: 44.7 µM
53 | O=C(c1ccc(OC(F)(F)F)cc1)N1CCC(n2cc(-c3nc(C4CC4)no3)nn2)C1 (centres undefined) | inconclusive: 79.4 µM [inhibitor, partial curve, poor fit]
54 | Cc1nnc2ccc(N3CCN(C(=O)NC4CCCC4)CC3)nn12 | inactive
55 | COc1cc(NC(=O)CCC2CCN(C(=O)c3ccccc3)CC2)cc(OC)c1 | inconclusive: 39.8 µM [inhibitor, partial curve]
56 | COc1ccc2[nH]c3c(c2c1)CCNC31CCN(Cc2ccc(F)cc2F)CC1 | inconclusive: 39.8 µM [inhibitor, partial curve, poor fit]
57 | COc1ccc(-c2cc(N3CCC(NC(=O)c4ccc(F)c(Cl)c4)C3)n[nH]2)cc1 (centres undefined) | inconclusive: 44.7 µM [inhibitor, partial curve, poor fit]
58 | O=C(CC1CC1)N1C[C@H]2OC(=O)N(CCc3cccc(Cl)c3)[C@H]2C1 | inconclusive: 31.6 µM [inhibitor, full curve, poor fit]
59 | O=C(c1n[nH]c2ccccc12)N1CCC(N2C(=O)C(OCC3CC3)C23CCCCC3)CC1 (centres undefined) | inconclusive: 79.4 µM [inhibitor, partial curve, poor fit]
60 | CN(Cc1cccc(CCN)c1)Cc1cccc2ncccc12 | active: 44.7 µM
61 | O=C(Cc1cccc(F)c1)N1CCC(Cc2nncn2CC2CC2)C1 (centres undefined) | inactive
62 | CCNc1cc(N2CCC(CCC(=O)Nc3ccc(C)cc3C)CC2)ncn1 | inconclusive: 50.1 µM [inhibitor, partial curve, poor fit]
63 | O=C(Nc1ccc2ncnc(N3CCCCC3)c2c1)C1CCCCC1 | inconclusive: 35.5 µM [inhibitor, partial curve, poor fit]
64 | COc1ccc(CC(=O)NC2CCN(c3ccc4nnc(-c5ccccc5)n4n3)CC2)cc1 | inconclusive: 50.1 µM [inhibitor, partial curve, poor fit]
65 | O=C(NC1CCN(c2cc(-c3ccc(F)cc3)[nH]n2)CC1)c1ccncc1 | inconclusive: 79.4 µM [inhibitor, single point]
66 | CCOc1ccc(CC(=O)N2CCCN(c3cc(-c4ccc(OC)cc4)[nH]n3)CC2)cc1OCC | inconclusive: 50.1 µM [inhibitor, partial curve, poor fit]
67 | O=C(c1cc2n(n1)CC(c1ccc(Br)cc1)OC2)N1CCOCC1 (centres undefined) | active: 28.2 µM
68 | O=C(NCc1ccccc1)C1CCc2nnc(C3CC3)n21 (centres undefined) | inactive
69 | Cc1ccccc1C(=O)N1CCCC(C(=O)N2CCC3(CC2)CC(=O)Nc2ccccc2O3)C1 (centres undefined) | inconclusive: 89.1 µM [inhibitor, single point]
